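The compound was tested at five concentrations on cells cultured in 96-well plates, with a 48-hour exposure period. At the TGI there is no net growth.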 Certain results were filed several times, with different values. This list holds those alone. An entry can have further records. A record mostly stands for its own series of concentrations, not given here; some values may only mark the edge of a range.
Assays:
Test in all cases: inhibition of tumour cell growth, NCI panel, 48 h
NCI-H23 lung = test system: NCI-H23 lung
DLD-1 colon = test system: DLD-1 colon
KM20L2 colon = test system: KM20L2 colon
OVCAR-5 ovarian = test system: OVCAR-5 ovarian
OVCAR-8 ovarian = test system: OVCAR-8 ovarian
HT29 colon = test system: HT29 colon
786-0 renal = test system: 786-0 renal
NCI-H226 lung = test system: NCI-H226 lung
RPMI-8226 leukemia = test system: RPMI-8226 leukemia
SR leukemia = test system: SR leukemia
SK-MEL-5 melanoma = test system: SK-MEL-5 melanoma
K-562 leukemia = test system: K-562 leukemia
BT-549 breast = test system: BT-549 breast
KM12 colon = test system: KM12 colon

`CC[C@@]1(OP(=O)(O)O)C(=O)OCc2c1cc1n(c2=O)Cc2cc3ccccc3nc2-1` was tested, and the TGI (NCI-H23 lung) was 296 nM and 13 µM, the TGI (DLD-1 colon) was 2.45 µM and 73.4 µM and the TGI (KM20L2 colon) was 3.73 µM and > 100 µM. For the same compound, the TGI (OVCAR-5 ovarian) was 2.48 µM and 54.9 µM, the TGI (OVCAR-8 ovarian) was 2.11 µM and > 100 µM and the TGI (HT29 colon) was 4.4 µM and > 100 µM. For the same compound, the TGI (786-0 renal) was 7.75 µM and 298 nM.
For `COc1ccc(-c2csc3c2-n2cccc2C3=O)cc1`, the TGI (NCI-H226 lung) was 461 nM and > 47.3 µM, the TGI (RPMI-8226 leukemia) was 1.49 µM and 35.9 µM and the TGI (SR leukemia) was 17 nM and > 37.1 µM. For the same compound, the TGI (SK-MEL-5 melanoma) was 98.3 nM and 1.71 µM, the TGI (K-562 leukemia) was 48.6 nM and > 100 µM and the TGI (HT29 colon) was 109 nM and > 100 µM. For the same compound, the TGI (BT-549 breast) was 3.72 µM and > 100 µM and the TGI (KM12 colon) was 1.63 µM and > 26.3 µM.

Source: PubChem BioAssay (NCI)
